From publication PMC4336329 (PLoS ONE, 2015)
Among all 310,000 compounds or so, about 14,000 (4.5%) showed an effect of 50% or more. Effects have a minus sign here. Some of the results follow.

target: human ether-à-go-go-related gene (hERG) potassium channel (human, UniProt Q12809); experiment: primary screen, population patch clamp on CHO cells stably expressing hERG
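Note: peak tail current of the secondary pulse compared with the same well before compound.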

Chain of human ether-à-go-go-related gene (hERG) potassium channel (Q12809 whole entry, looked up): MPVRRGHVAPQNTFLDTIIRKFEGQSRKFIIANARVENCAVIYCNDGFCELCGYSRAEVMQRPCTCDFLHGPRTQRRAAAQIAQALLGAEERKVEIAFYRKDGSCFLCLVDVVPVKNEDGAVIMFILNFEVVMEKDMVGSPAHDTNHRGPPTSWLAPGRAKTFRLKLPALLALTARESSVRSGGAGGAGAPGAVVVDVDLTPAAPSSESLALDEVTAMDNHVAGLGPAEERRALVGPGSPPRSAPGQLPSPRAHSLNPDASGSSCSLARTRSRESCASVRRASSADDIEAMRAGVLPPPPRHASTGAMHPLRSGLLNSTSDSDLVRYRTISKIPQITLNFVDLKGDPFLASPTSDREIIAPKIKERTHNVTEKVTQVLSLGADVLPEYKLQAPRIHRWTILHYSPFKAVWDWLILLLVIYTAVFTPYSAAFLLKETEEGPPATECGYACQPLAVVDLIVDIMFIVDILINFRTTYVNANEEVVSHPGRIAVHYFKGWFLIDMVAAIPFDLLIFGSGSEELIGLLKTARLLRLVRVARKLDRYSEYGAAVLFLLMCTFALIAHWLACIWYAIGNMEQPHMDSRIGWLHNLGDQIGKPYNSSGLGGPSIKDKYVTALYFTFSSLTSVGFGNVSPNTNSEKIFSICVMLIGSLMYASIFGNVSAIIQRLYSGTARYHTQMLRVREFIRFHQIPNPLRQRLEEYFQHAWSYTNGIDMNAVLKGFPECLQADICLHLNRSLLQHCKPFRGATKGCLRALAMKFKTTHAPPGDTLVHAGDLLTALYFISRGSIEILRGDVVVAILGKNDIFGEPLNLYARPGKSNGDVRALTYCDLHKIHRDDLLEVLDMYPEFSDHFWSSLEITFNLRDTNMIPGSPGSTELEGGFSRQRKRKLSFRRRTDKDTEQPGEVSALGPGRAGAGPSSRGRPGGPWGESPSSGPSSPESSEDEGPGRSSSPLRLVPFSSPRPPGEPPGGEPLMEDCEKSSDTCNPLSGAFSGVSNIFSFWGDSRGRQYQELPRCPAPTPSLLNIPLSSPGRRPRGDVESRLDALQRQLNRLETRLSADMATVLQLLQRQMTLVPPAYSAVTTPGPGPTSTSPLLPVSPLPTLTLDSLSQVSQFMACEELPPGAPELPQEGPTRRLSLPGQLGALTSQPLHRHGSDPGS

SMILES | hERG current change (%, negative = inhibition) at 10uM [%]
Cc1ccc(S(=O)(=O)N(CC(=O)N2CCOCC2)CC(=O)N2CCOCC2)cc1 | 5.6
CCN(CCO)c1ccc(NC(=S)Nc2cccc(S(=O)(=O)N(C)C)c2)cc1 | -1.01
Cn1cnnc1SCC(=O)NC1CCCCC1 | 1.66
COC(=O)C1=COC(OC2OC(CO)C(O)C(O)C2O)C2C1C=CC2(O)CO (stereo not shown) | 2.46
CC(=O)N/N=C(\N)c1nonc1N | 16.3
CC1(C)CC(=O)C=C(Nc2cccc(Cl)c2Cl)C1 | -30.1
COc1ccccc1N1CCN(C(=O)c2c(-c3ccccc3Cl)noc2C)CC1 | -51.2
Cc1cccc(N=C2NC(=O)/C(=C/c3cccnc3)S2)c1 | 5.71
O=C(O)COCC(=O)N1CCCN(c2nccc(C(F)(F)F)n2)CC1 | 17.7
Cc1[nH]n(-c2ccc(Cl)cc2)c(=O)c1C=Nc1ccc(S(=O)(=O)N2CCOCC2)cc1 | -16.6
CCOC(=O)c1cnn(-c2nc(SC)nc3sc4c(c23)CCCC4)c1N | -7.67
CC(=O)Nc1ccc(Nc2cc(C)nc3c(-c4ccccc4)c(C)nn23)cc1 | -12.5
COCCN=C1N[C@@H](c2cccc(C(F)(F)F)c2)C(C(=O)OC)=C(C)N1Cc1ccccc1 | -11.9
COCCN1Cc2cccc(C(=O)NCC3CCN(CC(C)C)C3)c2C1=O (stereo not shown) | -29.2
CCOC(=O)C1CCN(S(=O)(=O)CCNC(=O)c2cccc(OC)c2)CC1 | -19.5
Cc1ccc(CNC(=O)CCn2nc(-c3ccc(Cl)cc3)ccc2=O)cc1 | -35.3
Cc1ccc(S(=O)(=O)N2CCC[C@H]2C(=O)OC(C)C(=O)Nc2ncc(Cl)cc2Cl)cc1 (stereo partly shown) | -34.5
COc1ccc(OC)c(-c2[nH]nc3c2C(c2ccco2)C(C#N)=C(N)O3)c1 (stereo not shown) | -11.7
COc1ccc(N(CC(C)C)S(=O)(=O)c2nnc(NC(=O)c3ccco3)s2)cc1 | 19.4
COCc1cc(=O)[nH]c(SCC(=O)c2ccccc2)n1 | 9.25
CCOc1cc(/C=N/NC(N)=O)cc(Br)c1OCc1ccccc1F | 10.9
Cc1ccc(S(=O)(=O)CCN2CCC(O)(c3ccccc3)CC2)cc1 | 3.46

SMILES | hERG current change (%, negative = inhibition) at 10uM [%]
Cn1cnnc1SCC(=O)NNC(=O)COc1ccc(Cl)cc1 | 15.9
CC(=O)NC(c1cccc([N+](=O)[O-])c1)c1ccc2cccnc2c1O (stereo not shown) | 9.13
Cc1c(NC(=O)COC(=O)c2ccc(S(=O)(=O)N3CCOCC3)cc2)c(=O)n(-c2ccccc2)n1C | 9.3
Br.Cc1c(Nc2scc(-c3ccccc3)[n+]2-c2ccccc2)c(=O)n(-c2ccccc2)n1C | -32
CCOC(=O)C1CCN(C(=O)C(CC)c2ccccc2)CC1 (stereo not shown) | 0.948
COc1ccc(NC(=S)NC(C)c2ccncc2)cc1OC (stereo not shown) | -6.54
COc1ccc2c(CCNC(N)=S)c[nH]c2c1 | 8.29
O=[N+]([O-])c1ccc(N2CCCC2)c2ncccc12 | 8.6
CCc1nc(SCC(=O)N2c3ccccc3Sc3ccccc32)c2ccccc2n1 | 5
COc1cc(CNc2ccc3c(c2)OCCO3)ccc1OCC(N)=O | 14.2
CC1(C)CN(c2ccc(F)cc2)C1=O | 22.4
CCOC(=O)[C@@H](C)N(Cc1ccc(OC)cc1)S(=O)(=O)N(Cc1ccccc1)[C@H](C(=O)OC)C(C)C | 15.3
CCOc1ccccc1NC(=O)COC(=O)CSc1ccc(Cl)cc1 | 21.2
O=c1c2[nH]c3ccc(Br)cc3c2ncn1Cc1ccncc1 | -4.79
Nc1nc(Cl)nc2c1ncn2[C@@H]1O[C@H](CO)[C@@H](O)[C@H]1O | -0.00462
CCc1cc(=O)oc2c3c(cc(OCC(=O)NCCN4CCOCC4)c12)OC(C)(C)CC3 | -19.3
CC(CCc1ccccc1)NC(=O)COC(=O)C(CCC(N)=O)NC(=O)c1ccc(F)cc1 (stereo not shown) | -12.2
CCOC(=O)C1(CC2CCCCO2)CCN(S(=O)(=O)c2c(C)nn(C)c2C)CC1 (stereo not shown) | 7.49
COC(CNC(=O)c1ccc2nc(-c3ccccc3)c(-c3ccccc3)nc2c1)OC | 1.32
COc1ccc(NCc2cccnc2)cc1 | 27.3
CCCCc1cc(O)c(CCCC)c(O)c1 | -34.1
CC(NC(=O)COC(=O)C1CCN(c2ccc(C(F)(F)F)cn2)CC1)c1ccc(Br)cc1 (stereo not shown) | 7.76

SMILES | hERG current change (%, negative = inhibition) at 10uM [%]
COc1ccc(C(C2C(=O)CC(C)(C)CC2=O)C2C(=O)CC(C)(C)CC2=O)cc1 | 2.75
COCCn1nnnc1SCC(=O)Nc1ccc2c(c1)OCO2 | 0.201
COc1ccc(CNC(=O)C(C)Sc2ccc(C)cc2)cc1 (stereo not shown) | 3.65
CN(C(=O)Cc1c(C(=O)O)n(C)c2ccccc12)c1cccc(C(F)(F)F)c1 | 23
Cc1c(NC(=O)CSc2ccccc2Cl)c(=O)n(-c2ccccc2)n1C | -12.3
CCOc1ccccc1CNCCNC(=O)c1nonc1N.Cl | -13.5
CCN(Cc1ccccc1)C(c1ccc(C(F)(F)F)cc1)c1nnnn1C(C)(C)C (stereo not shown) | 6.31
COc1cccc(CNC(=O)CC(NC(C)=O)c2ccccc2)c1 (stereo not shown) | 16.2
CCCC(=O)Nc1ccc(C2C(=O)c3ccccc3C2=O)cc1 | 25.3
Cc1c(C)n2c(SCC(=O)N3CCOCC3)nnc2[nH]c1=O | -12.7
COc1ccc(C(=O)NCCCN2CCOCC2)cc1OC | -8.39
CCN(CC(=O)Nc1ccccc1OC)CC(=O)Nc1c(Cl)ccc(C)c1Cl | 0.177
CCOC(=O)c1ccc(N2C(=O)C3CCCN3C2=S)cc1 (stereo not shown) | -5.27
Cc1cccc(N(Cc2cc3ccc(C)cc3[nH]c2=O)S(=O)(=O)c2ccccc2)c1 | 15.1
COCCNC(=O)C1CCN(C(=O)c2cc3sccc3n2Cc2ccc(F)cc2)CC1 | -15.6
CCSc1nnc(-c2cccc(S(=O)(=O)N(C)C)c2)n1-c1cc(OC)ccc1OC | -49.8
COc1ccc(C(CNC(=O)c2ccc(S(=O)(=O)N3CCCC3)cc2)N(C)C)cc1OC (stereo not shown) | -0.631
COc1ccc(/C=C/C(=O)NC(=S)Nc2ccc(N3CCN(C(C)=O)CC3)cc2)cc1 | 12.2
CN(C1CCCCC1)C(CNS(=O)(=O)c1ccccc1)c1ccccc1 (stereo not shown) | -8.68
O=C(c1ccc(Br)o1)N1CCN=C1SCc1cccnc1 | -11.9
O=C(Nc1ccc(F)cc1)Nc1ccccc1N1CCCCC1 | 5.43
CC(=O)CC(=O)Nc1nc(C)cc(C)n1 | 13.4

SMILES | hERG current change (%, negative = inhibition) at 10uM [%]
CC(C)CNC(=O)COCc1cc(-c2ccc3c(c2)OCO3)on1 | -2.23
O=C(O)C1C2C=CC(O2)C1C(=O)Nc1cccc(C(F)(F)F)c1 (stereo not shown) | 30.9
O=C(NCCCNC(=O)c1ccccc1Cl)c1cnccn1 | 16.8
Cc1ccc([N+](=O)[O-])cc1N/C=C1\CCCCC1=O | 6.81
O=C(N=C1SC2CS(=O)(=O)CC2N1c1cccc(Cl)c1Cl)C1CC1 (stereo not shown) | -1.32
CCCc1nnc(NC(=O)CCC(=O)NC2CCCc3ccccc32)s1 (stereo not shown) | 5.8
O=C(CSc1nnc(N2CCCC2)n1-c1ccccc1Cl)N1CCN(c2ccccn2)CC1 | -24.9
O=[N+]([O-])/C=C/c1cc2ccccc2[nH]1 | 21.4
O=[N+]([O-])c1ccccc1SNc1ccc(Br)cn1 | 14.2
O=[N+]([O-])c1ccc(O)c(C2=NNC(c3ccccc3F)C2)c1 (stereo not shown) | -23.2
Cc1onc(-c2ccccc2)c1C(=O)c1c[nH]c(C(=O)NCc2ccccn2)c1 | 6.77
NS(=O)(=O)c1ccc(NS(=O)(=O)c2ccc(NC(=O)C3CC3)cc2)cc1 | 22.6
Cc1ccccc1N=C1c2cc([N+](=O)[O-])ccc2-c2ncccc21 | -11.1
CCOc1nc(-c2ccc(Cl)cc2)nc2ccccc12 | -5.18
O=C(NCC1CCCO1)c1csc(Nc2cccc3ccccc23)n1 (stereo not shown) | -34.8
CCOc1[nH]n(-c2ccccc2)c(=O)c1C=Nc1ccc(F)cc1F | 14.4
c1ccc(COc2ccccc2CNc2nn[nH]n2)cc1 | 13.1
COc1cc(C)c(Br)cc1S(=O)(=O)NCCN1CCOCC1 | 12.5
COc1cc(C(C)=O)ccc1Oc1ncnc2c1cnn2-c1ccccc1 | 1.49
O=C(c1ccc(OCC[NH+]2CCCCC2)cc1)c1c(-c2ccc(O)cc2)sc2cc(O)ccc12.[Cl-] | -1.49
COc1ccc2nc3oc(C(=O)NC4CCN(Cc5ccccc5)CC4)cc3cc2c1 | -67.1
COc1ccc(C)cc1S(=O)(=O)Nc1cccnc1 | -10.6
